Here are results for one compound from US6380204B1, “Atropisomers of 3-heteroaryl-4(3H)-quinazolinones for the treatment of neurodegenerative and CNS-trauma related conditions” (Pfizer INC, priority 1997, dated 2002).

Each structure is given as a SMILES string. Where a name gives a salt, the structure may show the parent alone. Read-outs that look alike come from different tables or passages of the source. Some values that stand alone complete this part of the results.

Usually melting point stands for the temperature, or range, at which the solid turns liquid.

Take `Cc1nc(C=Cc2nc3ccc(F)cc3c(=O)n2-c2cccnc2C)cs1` (as salt: mesylate): the melting point is 223 to 224 °C (free base) and 230 to 231 °C (mesylate salt).
